Results taken from patent US20260209325A1, “SELECTIVE AND POTENT INHIBITORY ANTIBODIES OF MYOSTATIN ACTIVATION” (SCHOLAR ROCK, INC., priority 2022, published 2026).
“Also recorded” adds a separate entry of the source.

Experiments:
[1] = AC-SINS self-interaction (aggregation behavior); assay type: physicochemical; conditions: cutoff: shift of >5 nm in plasmon wavelength
Outline: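 Antibodies captured on gold nanoparticles coated with anti-human polyclonal antibodies; self-association read as red shift of plasmon wavelength from 530 nm (unaggregated). Shift >5 nm taken as cutoff for self-interaction.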

total myostatin = assay: total serum myostatin (PD) in obese mice with or without semaglutide (Example 8); assay type: in vivo, mouse; conditions: 0.1 to 3 mg/kg, alone or with semaglutide; FIG. 16B
Protocol: (§1) Male 19 week old C7/BL6 mice fed a high fat diet to induce obesity (DIO-B6-M mice, were evaluated for the effect of the combination of antibody and semaglutide on the exposure of the antibody to the target antigen (PK) and the total myostatin serum level (PD), as shown in Table 25. Animals were dosed with antibody intraperitoneally on days 0, 7, and 14 and were dosed with semaglutide subcutaneously daily throughout the study. Exposure of the antibody to immobilized promyostatin was determined by ELISA. Total serum myostatin was also measured by ELISA. The study concluded on day 22, when terminal bleeds were obtained.

[2] = Ab109 with 0.01 or 0.04 mg/kg semaglutide in DIO mice (Example 9); assay type: in vivo, mouse
Protocol: Male C57/BL6 male mice (n=8/group) were placed on a 60% high fat diet at […] of age and maintained on the 60% high fat diet until 21 weeks of age (Groups 1-12), at which time the study began (day −7). On day −7, animals in groups 1-12 were switched to a 45% high fat diet and maintained on the 45% high fat diet until the animals were terminated. […] Body weight was measured three times per week and qNMR measurements of lean mass and fat mass were obtained pre-dose on day 0 and on days 7, 14 and 21. Fasting glucose was measured on day 18 after a 4 hour fast.
Animals in groups 3-12 were dosed with semaglutide daily for 3 weeks, then terminated. Animals in groups 1, 3, and 4 were treated with IgG control antibody, and those in groups 2, 5-12 were treated with myostatin activation inhibiting antibody treatment, for 3 weeks.
At termination, left gastrocnemius and quadriceps muscles were removed and frozen; the liver was weighed, one lobe was frozen; epididymal (perigonadal) adipose tissue was removed and weighed; inguinal (subcutaneous) adipose tissue was removed and weighed; and a terminal serum bleed was obtained.

free latent myostatin = target: T1, free latent myostatin (Mus musculus, UniProt O08689); assay: serum free latent myostatin in obese mice with or without semaglutide (Example 8); assay type: in vivo; conditions: in presence or absence of semaglutide, day 22; FIG. 16C
T1 construct: from tissue; host or cells: mouse serum
Excerpt: In another embodiment, a pharmacodynamic assay, can be performed by measuring the binding of the antibodies to serum free latent myostatin (i.e., circulating latent myostatin that is not bound by the antibody). Such an assay may immobilize streptavidin, bind a biotinylated antibody known to bind latent myostatin, add latent myostatin, and test the ability of an antibody to bind to the free latent myostatin by labeling the test antibody with a detectable marker. […] In such an embodiment, the detection range of the assay may be in the nanogram range, e.g., 0.1 ng/ml-750 ng/ml, 1.0 ng/ml-500 ng/ml, or 3.0 ng/ml-500 ng/ml, e.g., 3.9-500 ng/mL. […]
as §1

[3] = semaglutide plus Ab109 in DIO mice incl. semaglutide withdrawal (Example 6); assay type: in vivo, mouse
Protocol: Male C57/BL6 male mice (n=8/group) were either fed regular mouse chow (Group 1) or placed on a 60% high fat diet at six weeks of age and maintained on the 60% high fat diet until 21 weeks of age (Groups 2-8), at which time the study began (day 0). On day 0, animals in groups 2-8 were switched to a 45% high fat diet and maintained on the 45% high fat diet until the animals were terminated. […] Body weight was measured three times per week and qNMR measurements of lean mass and fat mass were obtained on the days set forth.
Animals in groups 3 and 4 were dosed with semaglutide weekly for 14 days, then terminated. Animals in groups 5 and 6 (weight regain groups), were treated with semaglutide for 35 days, then the semaglutide treatment was ended while the myostatin activation inhibiting antibody treatment continued until the animals were terminated on day 63. The animals in Groups 7 and 8 were treated with semaglutide for 63 days, i.e., they remained on semaglutide until the study terminated on day 63.
At termination, left and right gastrocnemius muscles were removed and frozen; the liver was weighed, one lobe was fixed, and the remainder was frozen; epididymal adipose tissue was removed and weighed; subcutaneous adipose tissue was removed and weighed; and a terminal serum bleed was obtained.

serum free latent myostatin (not bound by antibody) (free latent myostatin): reduced below the level of quantitation
B1: Ab109: anti-pro/latent myostatin antibody; CDR sequences in Table 2d (antibody)
heavy: EVQLVESGGGLVQPGGSLRLSCAASGFTFSSYGMSWVRQAPGKGLELVASFTGSGGTYYPDSVKGRFTISRDNAKNSLYLQMNSLRAEDTAVYYCARDLLIRFLEWSHYYGMDVWGQGTTVTVSSASTKGPSVFPLAPCSRSTSESTAALGCLVKDYFPEPVTVSWNSGALTSGVHTFPAVLQSSGLYSLSSVVTVPSSSLGTKTYTCNVDHKPSNTKVDKRV[human IgG4 Fc with S228P (EU numbers) left out]
light: DIVMTQSPLSLPVTPGEPASISCRSSQSLLHSSGHNFLHWYLQKPGQSPQLLIYEVSNRVSGVPDRFSGSGSGTDFTLKISRVEAEDVGVYYCMQQTQYPPTFGGGTKVEIKRTVAAPSVFIFPPSDEQLKSGTASVVCLLNNFYPREAKVQWKVDNALQSGNSQESVTEQDSKDSTYSLSSTLTLSKADYEKHKVYACEVTHQGLSSPVTKSFNRGEC
aggregation behavior by AC-SINS [1]: did not display aggregation behavior
serum total myostatin (total myostatin): not affected by the presence of semaglutide
body weight ([2]; 45% high fat diet, semaglutide 0.01 or 0.04 mg/kg daily, 3 weeks, FIGS. 18A-B): maintained steady body weight
increase in lean mass ([2]; Ab109 added to 0.01 mg/kg semaglutide, FIG. 20B): 4% to 6%
lean mass change ([2]; Ab109 added to 0.04 mg/kg semaglutide, FIG. 20A): close-to-neutral lean mass change at 3 mg/kg and 10 mg/kg of Ab109
lean mass ([2]; Ab109 in combination with semaglutide, FIG. 20C): preserved lean mass at doses of 1, 3, and 10 mg/kg Ab109
quadriceps muscle loss ([2]; Ab109 in combination with semaglutide, FIG. 21A): prevented this muscle loss
gastrocnemius muscle loss ([2]; Ab109 in combination with semaglutide, FIG. 21B): prevented this muscle loss
perigonadal fat pad loss ([2]; Ab109 in combination with semaglutide, FIG. 22A): only improved fat pad loss at select doses
inguinal fat pad loss ([2]; Ab109 in combination with semaglutide, FIG. 22B): improved inguinal fat pad loss
fat mass gain ([2]; Ab109 monotherapy without semaglutide, FIG. 19A): 7%
increase in lean mass ([2]; Ab109 treatment alone, FIG. 20C): 8.3%
fat mass loss ([2]; semaglutide 0.01 mg/kg with Ab109, FIG. 19B): improved fat mass loss compared to those treated with 0.01 mg/kg semaglutide and IgG control
fat mass loss ([2]; semaglutide 0.04 mg/kg alone or with Ab109, FIG. 19A, 19C): improved fat mass loss compared to IgG control with semaglutide; also recorded: improved fat mass loss in a dose-dependent manner
body weight ([3]; 45% high fat diet, semaglutide 0.04 mg/kg with hIgG or Ab109, incl. regain after withdrawal, FIG. 14A): regained weight at the same rate whether they were treated with hIgG or Ab109
lean mass and fat mass by qNMR ([3]; Ab109 and semaglutide, FIG. 14H): reversed lean mass loss and enhanced fat mass loss induced by semaglutide treatment
further reduction of fasting blood glucose ([3]; Ab109 in conjunction with semaglutide, FIG. 14I): approximately 20%
liver weight ([3]; Ab109 in conjunction with semaglutide, FIG. 14J): reduced liver weight
gastrocnemius muscle weight ([3]; after 14 days of semaglutide treatment, FIG. 14E): preserved the gastrocnemius muscle weight
lean mass ([3]; semaglutide and Ab109, FIG. 14B-C): continued to increase their lean mass throughout the duration of the study; also recorded: better at maintaining lean mass during weight loss
fat mass ([3]; semaglutide, and regain after withdrawal with Ab109 or control IgG, FIG. 14D): regained less fat mass and regained it at a slower rate than those treated with control IgG
